Measurements taken from paper PMC7738880, “Identification of novel CD44v6-binding peptides that block CD44v6 and deliver a pro-apoptotic peptide to tumors to inhibit tumor growth and metastasis in mice” (Theranostics, 2021).
No end group written: not given here. *: point of attachment. Biotin = O=C1N[C@H]2[C@H](CS[C@H]2CCCCC(=O)*)N1

Tests used:
[1] = molecular target: T1, biotin-labeled NLN (CNLNTIDTC) (cysteine pairing not given here); assay: SPR; biotin-labeled peptides (25 µM) immobilised on a streptavidin chip; CD44v6-Fc or CD44-Fc flowed at 0.125, 0.25, 0.5, 1 and 2 µM, single cycle; 137 mM NaCl, 10 mM phosphate, 2.7 mM KCl pH 7.4, 62.5 µM BSA, 0.005% Tween-20; steady-state fit, 1:1 model; conditions: both partners purified
T1 construct: also called biotinylated NLN; biotin-conjugated NLN; source: synthetic peptide (Anygen Inc.)
T1 peptide: Biotin-CNLNTIDTC

[2] = molecular target: T2, biotin-labeled NEW (CNEWQLKSC) (cysteine pairing not given here); assay: as above; conditions: both partners purified
T2 construct: also called biotinylated NEW; biotin-conjugated NEW; source: synthetic peptide (Anygen Inc.)
T2 peptide: Biotin-CNEWQLKSC

Kd [1]: 253 ± 79 nM
Kd [2]: 85 ± 18 nM
B1: recombinant human CD44v6-Fc protein (Fc fusion)
chain: [letters of about 200 residues not shown]ATQATPSSTTEETATQKEQWFGNRWHEGYRQTPKEDSHSTTGTAAGDQDTFHPSGGSHTTHGSESDGHSHGSQEGGANTTSGPIRTPQIPE
